# Measured values from the RNAGym collection of RNA variant scans (doi:10.7554/elife.90254).
# Read counts are not given, so values of variants with three or more changes are uncertain.
# B1: OR4K15 (parent)
# chain: GUUAACGGUCAUAGGCCAUGGAAACUAGGAGCACCAUUUCGCUGCCAGUGAAGAAAUGAACAAAGAAAAUCUGGGCCAGGCAGGCAUCAAAAGAAAUAGUCUUGCGCUCAACCAGAAAGUCUGUAAUCAUUUUAAGGGUA
# Variants of: B1
# Test: self-cleavage, relative activity (ratio to wild type); higher = more cleavage; in vitro, sequencing; the parent is a self-cleaving ribozyme
row,Variant,self-cleavage
1,GUUAACGGUCAUAGGCCAUGGAAACUAGGAGCACCAUUUCGCUGCCAGUGAAGAAAUGAACAAAGAAAAUCUGGGCCAGGCAGGCAUCAAAAGAAAUAGUCCUGCGCUCAACCAGAGAGUCUGUAAUCAUUUUAAGGGCA,2.56
2,GUUAACGGUCAUAGGCCAUGGAAACUAGGAGCACCAUUUCGCUGCCAGUGAAGAAAUGAAUAAAGAAGAUCUGGGCCAGGCAGGCAUCAAAAGAAAUAGUCUUGCGCUCAACCAGAAAGUCUGUAAUCACUUUAAGGGUA,0.83
3,GUUAACGGUCAUAGGCCAUGGAAACCAGGAGUACCAUUUCGCUGCCAGUGAAGAAAUGAACAAAGAAAAUCUGGGCCAGGCGGGCAUCAAAAGAAAUAGUCUUGCGCUCAACCAGAAAGUCUGUAAUCAUUUUAAGGGUA,0.63
4,GUUAACGGUCAUAGGCCAUGGAAACUAGGAGCACCGUUUCGCUGCCAGUGAAGAAAUGAACAAAGAAAAUCUGGGCCAGGCAGGCAUCAAAAGAAAUAGUCUUGUGCUCAACCGGAAAGUGUGUAAUCAUUUUAAGGGUA,0.01
5,GUUAACGGUCAUAGGCCAUGGAAACUAGGAGCACCAUUUCGCUGCCAGUGAAGAAAUGAACAAAGAAAAUCUGGGCCAGGCAGGCCUCAAAGGAAAUAGUCUUGCGCCCAACCAGAAAGUCGGUAAUCAUUUUAAGGGUA,0.02
6,GUCAACGGUCAUAGGCCAUGGAAACUAGGAGCACCAUUACGCUGCCAGUGAGGAAACGAACAAAGAAAAUCUGGGCCAGGCAGGCAUCAAAAGAGAUAGUCUUGCGCUCAACCAGAAAGUCUGUAAUCAUUUUAAGGGUA,1.26
7,GUUAACGGUCAUAGGCCAUGGAAACUAGGAGCACCAUUUCGCUGCCAGUGAAGAUAUGAGCAAAGAAAAUCUGGGCCAGGCAGGCAUCAAAAGAAAUAGUCUUGCGCUCAACCAGGAAGUCUGUAAUCAUUUUAAGGGUA,0.4
8,GUUAACGGUCAUAGGCCAUGGAAACUAGGGGCCCCAUUUCGCUGCCAGCGAAGAGAUGGACAAAGAAAAUCUGGGCCAGGCAGGCAUCAAAAGAAAUAGUCUUGCGCUAAACCAGAAAGUCAGUAAUCAUUUUAAGAGUA,0.29
9,GUUAACGGUCGUAGGCCAUGGAAACUGGGAGCACCAUUUCGCUGCCAGUGAAGAAAUGAACUAAGAAAAUCUGGGCCAGGCAGGCAUCAAAAGAAAUAGUCUUGCGCUCAACCAGAAAGUCUGUAAUCAUUUUAAGGGUA,0.98
10,GUUAACGGUCAUAGGCCAUGGAAACUAGGAGCACCAUUUCGCUGCCAGUGAAGAAAUGAGCAAAGAAAAGCAGGGCCGGGCAGGCAUCAAGAGAAAUAGUCUUGCGCUCAACCAGAAAGUCUGUAAUCAUUUUAAGGGUG,0.12
11,GUUAACGGUCAUAGGCCAUGGAAACUAGGAGCGCCAUUUCGCUGCCAGUGAAGAAAUGAACAAAGAAAACCUGGGCCAGGCAGGCAUCAGAAGAAAUAGUCUUGCGCUCGACCAGAAAGUCCGUAAUCAUUUUAAGGGUA,0.01
12,GUUAACGGUCAUAGGCCAUGGAAACUAGGAGCACCAUUUCGCUGCCAGUGAAGAGAUGAACAAAGAAAAUCUGGGCCAGGCAGGCAUCAAAAGAAAUAGUCUUGCGCCCAACCAGAAAGUCUGUAAUCAUUUUAAGAGUA,0.02
13,GUUAACGGUCAUAGGCCAUGGAAGCUAGGAGCACCAUUACGCUGCCAGUGAAGAAAUGAACAAAGAAAAUCUGGGCCGGGCAGGCAUCAAAAGAAAUAGUCUUGCGCCCAACCAGAAAGUCUGUAAUCAUUUUAAGGGUA,0.06
14,GUUAACGGUCAUAGGCCAUGGAGACUAGGAGCACCAUUUCACUGCCAGUGAAGAAAUGAACAAAGAAAGUCUGGGCCAGGCAGGCAUCAAAAGAAAUGGUCUUGCGCUCAACCAGAAAGACUGUAAUCAUUUUAAGGGUA,0.57
15,GUUAACGGUCUUAGGCCAUGGAAACUAGGAGCACCAUUUCGCUGCCAGGGAAGAGAUGAACAAAGAAAAUCUGGGCCAGGCAGGCAUCAAAAGGAAUAGCCUUGCGCUCAACCAGAAAGUCUGUAAUCAUUUAAAGGGUA,2.26
16,GUGAACGGUCAUAGGCCAUGGAAACUAGGAGCACCACUUCGCUGCCAGUGAAGAAAUGAACAAAGAAAAUCUGGGCCAGGCAGGCAUCAAAAGAAAUAGUCUUGCGCUCAACCAGAAAGUCUGUAAUCGUUUUAAGGGUA,0.35
17,GUUAACGGUCAUAGGCCAUGGAAACUAGGAGCACCAUUUCGCUGCCAGUGAAGAAAUGAACAAAGAAAAUCUGGGCCGGGCAGGCAUCAAAAGAAAUAGUCUUGCGCCCAACCAGAAAGUCUGCAAUCAUUUUAAGGGUA,0
18,GUUAACGGUCAUAGGCCAUGGAAACUAGGAGCACCAUUUCGCUGCCAGUGAAGAGAUGAACAAAGAAAAUCUGGGCCAGGCAGGCAUCAAAAGGAAUAGUCUCGCGCUCAACCAGAAAGUCUGUAAUCAUUUUAAGGGUA,0.46
19,GUUAACGGUCAUAGGCCAUGGAAACUAGGGGCACCAUUUCGCUGCCAGUGAAGAAAUGAACAAAGAGAAUCAGGGCCAGGCAGGCAUCAAAAGAAAUAGUCUUGCGCUCAACCAGAAAGUCUGUAAUCAUUUUAAGGGUA,0.7
20,GUUAACGGUCAUAGGCCAUGGAAACUAGGAGCACCAUUUCGCUGCCAGCGAAGAAUUGAACAUAGAAAAUCUGGGCCAGGCAGGCAUCAAAAGAAAUAGUCUUGCGCUCAACCAGAAAGUCUGUAAUCAUUUUAAGGGUA,0.56
